# In the supplement of paper PMC8728848:
# The other results are listed elsewhere or left out.
# B1: CwpV (Clostridium difficile), B6EFG6 (protein)
# chain: MKIPKKIAAMLTVTMIAGSSTAGIASAQTVATNLTGQERYETAVKISQDGWKNADEVVIVNDSSIADALSATPFAKAKNAPILLTSKDKLNDKTKAEIQRLKAKKVYLIGGTSVLSTNIEKEIKDLKISFERISGAERYQTSLELAKKLDAISDVKKIAVVNGEKGLADAVSVGAPAAQNNMPVILADSKNGTAVADKFIKDAGITQSYVVGGESSISEAVKNKLPNSTRLGGTDRNDTNAKVIKEFYKKTDLKNAYVTKDGMNKQDQLIDALAVGVLGAKNQSPVVLVGKNLSASQKSLVNSKSFDKITKVGGNGNETAFNEMKSLQEVKTVEAKTISELKSAIDKATANDVINFKPTSEVKEAFTIQTDKAVTVNLNGTYTKTVTINMPNGDVNNYAKVDDVVIDDVKDGTFVNYGKITNLKVNDKNGAKIENNSKGEIGSLTVASGASQVKVTNGGKITTVTNNSKGTTIDNKGTISSVKGDNSPTISGNSPSSNSSGGSSSSGGSSGGSSGGSSSSKVGQIKFSATDKQIKMASGDKTVDPSDNTYILKLTNGTVKDGDVKANVKVAGLPSGLDYTAVGNRSANTITITVSGTTSQSIQNDLNNVSVLVKAGAVSGTGATDSIANTTFEIKKYVAAPAVGQLTFDATDKQIKMASGDKTVDPSDDTYVLTLTKGTAKDGDIKANVEVTGLPSGLDYTAEGDSSANTITIPVSGTASPAVQTDLDNVSVLVKAGAVSETTATDSAANATFEVKKYVAPAVGQLTFDATDKQIKMASGDKTVDPSDDTYVLTLTKGTAKDGDIKANVEVTGLPSGLDYTAEGDSSANTITITVSGTASQAVQTDLDNVSVLVKAGAVSETTATDSAANATFEVKKYVAPAIGQLTFDATDKQIKMASGDKTVDPSDDTYVLTLTKGTAKDGDIKANVEVTGLPSGLDYTAEGDSSANTITITVSGTASQAVQTDLDNVSVLVKAGAVSETTATDSAANATFEVKKHASDPISTIGKISSGLSSLFNILK
# Experiments:
# Assay in all cases: glycan array binding signal (z-score within array); higher = stronger binding
# Conditions in all cases: glycan notation: IUPAC condensed, linker removed
# [1] = target: Gal(a1-3)Gal(b1-4)[Fuc(a1-3)]GlcNAc
# Method in brief: (§1)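 The binding signal is a Z-score computed within each array. Data were drawn from 3228 arrays in the Consortium for Functional Glycomics database, restricted to those with a known protein sequence. Scores were averaged over arrays of the same protein sequence at different concentrations or buffers, and over linkers, and negative values can be taken as non-binding.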
# [2] = target: Gal(a1-3)Gal(b1-4)[Fuc(a1-3)]GlcNAc(b1-2)Man(a1-3)[Gal(a1-3)Gal(b1-4)[Fuc(a1-3)]GlcNAc(b1-2)Man(a1-6)]Man(b1-4)GlcNAc(b1-4)GlcNAc
# Method in brief: as §1
# Gal(a1-3)GalNAc = target: Gal(a1-3)GalNAc
# Method in brief: as §1
# [3] = target: Gal(a1-3)[Gal(a1-4)]Gal(b1-4)GlcNAc
# Method in brief: as §1
# [4] = target: Gal(a1-4)Gal(b1-3)GlcNAc(b1-2)Man(a1-3)[Gal(a1-4)Gal(b1-3)GlcNAc(b1-2)Man(a1-6)]Man(b1-4)GlcNAc(b1-4)GlcNAc
# Method in brief: as §1
# Gal(a1-4)Gal(b1-4)Glc = target: Gal(a1-4)Gal(b1-4)Glc
# Method in brief: as §1
# Gal(a1-4)Gal(b1-4)GlcNAc = target: Gal(a1-4)Gal(b1-4)GlcNAc
# Method in brief: as §1
# [5] = target: Gal(a1-4)Gal(b1-4)GlcNAc(b1-2)Man(a1-3)[Gal(a1-4)Gal(b1-4)GlcNAc(b1-2)Man(a1-6)]Man(b1-4)GlcNAc(b1-4)GlcNAc
# Method in brief: as §1
# [6] = target: Gal(a1-4)Gal(b1-4)GlcNAc(b1-3)Gal(b1-4)Glc
# Method in brief: as §1
# Gal(a1-4)GlcNAc = target: Gal(a1-4)GlcNAc
# Method in brief: as §1
# Gal(a1-6)Glc = target: Gal(a1-6)Glc
# Method in brief: as §1
# Gal(b1-2)Gal = target: Gal(b1-2)Gal
# Method in brief: as §1
# Gal(b1-3)Gal = target: Gal(b1-3)Gal
# Method in brief: as §1
# Gal(b1-3)Gal(b1-4)GlcNAc = target: Gal(b1-3)Gal(b1-4)GlcNAc
# Method in brief: as §1
# [7] = target: Gal(b1-3)Gal(b1-4)GlcNAc(b1-2)Man(a1-3)[Gal(b1-3)Gal(b1-4)GlcNAc(b1-2)Man(a1-6)]Man(b1-4)GlcNAc(b1-4)GlcNAc
# Method in brief: as §1
# Gal(b1-3)GalNAc = target: Gal(b1-3)GalNAc
# Method in brief: as §1
# [8] = target: Gal(b1-3)GalNAc(a1-3)[Fuc(a1-2)]Gal(b1-4)Glc
# Method in brief: as §1
# [9] = target: Gal(b1-3)GalNAc(a1-3)[Fuc(a1-2)]Gal(b1-4)GlcNAc
# Method in brief: as §1
# [10] = target: Gal(b1-3)GalNAc(b1-3)Gal(a1-4)Gal(b1-4)Glc
# Method in brief: as §1
# [11] = target: Gal(b1-3)GalNAc(b1-4)Gal(b1-4)Glc
# Method in brief: as §1
# [12] = target: Gal(b1-3)GalNAc(b1-4)[Neu5Ac(a2-3)]Gal(b1-4)Glc
# Method in brief: as §1
# Gal(b1-3)GlcNAc = target: Gal(b1-3)GlcNAc
# Method in brief: as §1
# [13] = target: Gal(b1-3)GlcNAc(a1-6)Gal(b1-4)GlcNAc
# Method in brief: as §1
# [14] = target: Gal(b1-3)GlcNAc(b1-2)Man(a1-3)[Gal(b1-3)GlcNAc(b1-2)Man(a1-6)]Man(b1-4)GlcNAc(b1-4)GlcNAc
# Method in brief: as §1
# [15] = target: Gal(b1-3)GlcNAc(b1-2)Man(a1-3)[Gal(b1-3)GlcNAc(b1-2)Man(a1-6)]Man(b1-4)GlcNAc(b1-4)[Fuc(a1-6)]GlcNAc
# Method in brief: as §1
# [16] = target: Gal(b1-3)GlcNAc(b1-2)[Gal(b1-3)GlcNAc(b1-6)]Man(a1-6)[Gal(b1-3)GlcNAc(b1-2)Man(a1-3)]Man(b1-4)GlcNAc(b1-4)GlcNAc
# Method in brief: as §1
# [17] = target: Gal(b1-3)GlcNAc(b1-3)Gal(b1-3)GlcNAc
# Method in brief: as §1
# [18] = target: Gal(b1-3)GlcNAc(b1-3)Gal(b1-4)Glc
# Method in brief: as §1
# [19] = target: Gal(b1-3)GlcNAc(b1-3)Gal(b1-4)GlcNAc
# Method in brief: as §1
# [20] = target: Gal(b1-3)GlcNAc(b1-3)Gal(b1-4)GlcNAc(b1-6)[Gal(b1-3)GlcNAc(b1-3)]Gal(b1-4)Glc
# Method in brief: as §1
binder,measurement,setting,value
B1,glycan array binding signal (z-score),[1],-0.309
same,glycan array binding signal (z-score),[2],-0.297
same,glycan array binding signal (z-score),Gal(a1-3)GalNAc,-0.303
same,glycan array binding signal (z-score),[3],0.592
same,glycan array binding signal (z-score),[4],1.08
same,glycan array binding signal (z-score),Gal(a1-4)Gal(b1-4)Glc,-0.084
same,glycan array binding signal (z-score),Gal(a1-4)Gal(b1-4)GlcNAc,2.24
same,glycan array binding signal (z-score),[5],9.72
same,glycan array binding signal (z-score),[6],2.79
same,glycan array binding signal (z-score),Gal(a1-4)GlcNAc,-0.282
same,glycan array binding signal (z-score),Gal(a1-6)Glc,-0.279
same,glycan array binding signal (z-score),Gal(b1-2)Gal,-0.319
same,glycan array binding signal (z-score),Gal(b1-3)Gal,-0.305
same,glycan array binding signal (z-score),Gal(b1-3)Gal(b1-4)GlcNAc,-0.025
same,glycan array binding signal (z-score),[7],-0.151
same,glycan array binding signal (z-score),Gal(b1-3)GalNAc,-0.3
same,glycan array binding signal (z-score),[8],-0.16
same,glycan array binding signal (z-score),[9],-0.248
same,glycan array binding signal (z-score),[10],1.95
same,glycan array binding signal (z-score),[11],-0.063
same,glycan array binding signal (z-score),[12],-0.331
same,glycan array binding signal (z-score),Gal(b1-3)GlcNAc,-0.271
same,glycan array binding signal (z-score),[13],-0.294
same,glycan array binding signal (z-score),[14],-0.308
same,glycan array binding signal (z-score),[15],0.023
same,glycan array binding signal (z-score),[16],0.182
same,glycan array binding signal (z-score),[17],-0.249
same,glycan array binding signal (z-score),[18],-0.342
same,glycan array binding signal (z-score),[19],0.622
same,glycan array binding signal (z-score),[20],-0.255
